Laboratory results from PubChem BioAssay AID686970 (National Center for Advancing Translational Sciences (NCATS), 2013).
Hit rate of the full screen: of about 360,000 compounds, about 6,000 (1.7%) were called active. This list was built around the results that the source calls inconclusive (neither active nor inactive); the mix of calls is not that of the screen. Calls follow the shape of the dose curve; as a rule, active = well fitted cell-killing curve with a large enough effect; inconclusive = small, poorly fitted or top-dose-only effect, or effect the other way; inactive = flat fitted curve, though single readings scatter. Potencies of inconclusive entries are left out as doubtful fits.

Experiment: qHTS for induction of synthetic lethality in tumor cells producing 2HG: qHTS for the HT-1080-NT fibrosarcoma cell line;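 also: NT is the 2HG producing partner of a matched IDH1 knockdown line; nearly all actives have a fitted effect of over 55% in size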;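 as to activity, negative = less viability: 0% = DMSO-treated cells and -100% = media-only wells without cells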
Conditions: HT-1080-NT fibrosarcoma viability, CellTiter-Glo ATP luminescence, 48 h; activity, negative = less viability: at 46.1 µM (top of the series) unless noted
In short: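 750 cells/well, RPMI + 5% FBS; 2 h settle, compound pin-transfer, 48 h at 37 degrees C. CellTiter-Glo 10 min RT, luminescence. Normalized to DMSO and media-only wells.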
Potency is read from the fitted curve at half-maximal effect; tags tell the direction and shape of the fitted curve.

SMILES | Potency | activity, negative = less viability
CCOc1ccccc1NC(=O)c1ccc2nc[nH]c2c1 | inconclusive [rising, partial curve] | 
Cn1ccc2c(-c3ccc(C(N)=O)cc3)cc3c(c21)C1CCC3C1 (centres undefined) | inconclusive [cytotoxic, single point] | 
O=C(NCc1cccnc1)c1ccc(NC(=O)c2ccc(Br)cc2)cc1 | active: 11.6 µM | 
O=C(c1ccccc1)c1sc(Nc2ccc3c(c2)OCO3)nc1-c1ccccc1 | inconclusive [cytotoxic, single point] | 
O=C(COc1ncnc2ccc(Br)cc12)NCc1ccco1 | inconclusive [cytotoxic, single point] | 
CN1CCN(c2ccc(CNC(=O)c3cccc4c(-c5ccc(F)c(F)c5)coc34)cc2)CC1 | inconclusive [cytotoxic, single point] | 
CC1CCCCN1CCNC(=O)c1ccc2c(=O)n(Cc3ccc(Cl)cc3)c(=S)[nH]c2c1 (centres undefined) | active: 20.6 µM | 
CN1CCN(c2ccc([N+](=O)[O-])cc2C(=O)c2ccc(Cl)cc2)CC1 | active: 5.8 µM | 
O=C(CN1CCN(Cc2ccccc2)CC1)Nc1ccc([N+](=O)[O-])cc1C(=O)Nc1ccccc1F | active: 16.4 µM | 
COc1ccc(NC(=O)c2cc3ccccc3o2)cc1S(=O)(=O)N1CCCCC1 |  | inactive: -5.58%
CCOC(=O)c1cnc(SSc2ncc(C(=O)OCC)c(N)n2)nc1N |  | inactive: 1.07%
Cn1c(=O)n(C)c2cc([N+](=O)[O-])c(N3CCN(C(=O)c4ccccc4Cl)CC3)cc21 | inconclusive [cytotoxic, single point] | 
O=C(Nc1ccc(NC(=O)c2cc3ccccc3o2)cc1)c1ccco1 |  | inconclusive: -30% [cytotoxic]
CCn1nc(NC(=O)C2CCCO2)c2cc3cc(C)ccc3nc21 (centres undefined) |  | inactive: -1.02%
CCC[C@@H](CN1CCC[C@H]1CN1C(N)=NC[C@@H]1Cc1ccccc1)N1C[C@@H]([C@H](C)CC)N(CCCC2CCCC2)C1=N | inconclusive [cytotoxic, single point] | 
O=C(COC(=O)c1sc2ccccc2c1Cl)NC1CCCCC1 | inconclusive [rising, partial curve] | 
CCN(CC)C(=O)[C@H]1CC(CC(=O)NCCCN(C)C)C(=O)N2CCc3c([nH]c4ccccc34)[C@]12C (some centres undefined) |  | inactive: 6.95%
OC1CCCN(Cc2ccc3ccc4cccc5ccc2c3c45)C1 (centres undefined) | inconclusive [cytotoxic, single point] | 
C=CCc1cccc(/C=N/NC(=O)C(C)Nc2cccc(C)c2)c1O (centres undefined) | inconclusive [cytotoxic, single point] | 
